Test results as given in the RNAGym collection of RNA variant scans (doi:10.1093/nar/gkz1192).
The source gives no read counts; variants with many changes may rest on few reads.

B1: CPEB3 Ribozyme (parent)
chain: UAACAGGGGGCCACAGCAGAAGCGUUCACGUCGCAGCCCCUGUCAGAUUCUGGUGAAUCUGCGAAUUCUGCUGUAUAUCUC

Variants of: B1
Assay: self-cleavage, relative activity (ratio to wild type); higher = more cleavage; in vitro, sequencing
In short: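 Relative activity was defined as the cleaved/total read fraction for a variant divided by the same fraction for the unmutated ribozyme. CPEB3 self-cleaving ribozyme libraries were made by rounds of error-prone PCR, barcoded, and transcribed in vitro with T7 RNA polymerase for 5 hours at 37°C, and cleavage ran through transcription plus a 15 min DNase I step before EDTA. Illumina sequencing of template-switched reverse transcripts gave the reads, and DNA sequencing mapped the barcodes. Averages come from three batches, using variants with at least 5 reads.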

Variant	self-cleavage
UAACAGGGGGCCACAGCAGGAGCGAUCACGUCUCAGCCCCUGUCAGAUUCUGGUGAAUCUGCGAAUUCUGCUGUAUAUCUC [A20G U25A G33U]	0.07
UAACAGGGGGCCACAGCAGGAGCGACCACGUCGCAGCCCCUGUCAGAUUCUGGUGAGUCUGCGAGUCCUGCUGUAUACCUC [A20G U25A U26C A57G A65G U67C U78C]	0.14
UAACAGGGGGCCACAGCAGGAGCGAUCACGCCGCAGCCCCUGUCAGAUUCUGGUGAGUCUGCGAAUUCUGCUGUAUAUCUC [A20G U25A U31C A57G]	0.08
UAACAGGGGGCCACAGCAGGAGCGAUCACGUCGCAGCCCCAGUCAGAUUCUGGAGAAUCUGUGGAUUCUCCUGUAUAUCUC [A20G U25A U41A U54A C62U A64G G70C]	0.06
UAACAGGGGGCCACAGCAGGAGCGAUCACGUCGCAGCCCCCGUCAGAUUCAGGUGAAUCUGCGUAUUCUGCUGUAUAUCUC [A20G U25A U41C U51A A64U]	0.09
UAACAGGGGGCCACAGCAGGAGCGAUCACGUCGCAGCCCCUGCCGGAUACUGGUGAACCUGCGAAUUCUGCUGUAUACCUC [A20G U25A U43C A45G U49A U58C U78C]	0.1
UAACAGGGGGCCACAGCAGGAGCGAUCACGUCGCAGCCCCUGCCAGAUUCUGGUGGAUCUGCGAAUUCAGCUGUAUAUCUC [A20G U25A U43C A56G U69A]	0.06
UAACAGGGGGCCACAGCAGGAGCGAUCACGUCGCAGCCCCUGUCAGAUGCUGGUGAGCCUGCGAAUACUGCUGUAUAUCUC [A20G U25A U49G A57G U58C U67A]	0.05
UAACAGGGGGCCACAGCAGGAGCGAUCACGUCGCAGCCCCUGUCAGAUUCUGGUGAAUCUGCGAAUCCUGCUGUAUAUCUC [A20G U25A U67C]	0.35
UAACAGGGGGCCACAGCAGGAGCGAUCACGUCGCAGCCCCUGUCAGAUUCUGGUGAAUCUGCGAAUUCUGCCGUAUAUCUC [A20G U25A U72C]	0.31
UAACAGGGGGCCACAGCAGGAGCGAUCACGUCGCAGCCCCUGUCAGAUUCUGGUGAAUCUGCGAAUUCUGCUGUAUACCUC [A20G U25A U78C]	0.22
UAACAGGGGGCCACAGCAGGAGCGCUCGCGUCGCAGCCCCUGUCAGAUUCUGGUGAAUCUGCGAAUUCAGCUGUAUAUCUC [A20G U25C A28G U69A]	0.04
UAACAGGGGGCCACAGCAGGAGCGCUCUCGUCGCAGCCCCUGUCAGAUCCUGGUGAAUCUGCGAAUUCUGCUGUAUAUCUC [A20G U25C A28U U49C]	0.17
UAACAGGGGGCCACAGCAGGAGCGCUCACGUCGCCGCCCCUGUCAGAUUCUGGUGAAUCUGCGAAUUCUGCUGUAUACCUC [A20G U25C A35C U78C]	0.34
UAACAGGGGGCCACAGCAGGAGCGCUCACGUCGCGGCCCCUGUCAGAUUCUGGUGAAUCUGCGAAUUCUGCUGUAUAUCUC [A20G U25C A35G]	0.39
UAACAGGGGGCCACAGCAGGAGCGCUCACGUCGCUGCCCCUGUCAGAUUCCGGUGAAUCAGCGAAUUCUGCUGUAUGUCUC [A20G U25C A35U U51C U60A A77G]	0.17
UAACAGGGGGCCACAGCAGGAGCGCUCACGUCGCAGCCCCUGUCGGAUUCUGGUGAAUCUGCGAAUUCUGCUGUAUAUCUC [A20G U25C A45G]	0.47

Variant	self-cleavage
UAACAGGGGGCCACAGCAGGAGCGCUCACGUCGCAGCCCCUGUCGGAUUCUGGUGUAUCUGCGAAUUCUGCUGUAUAUCUC [A20G U25C A45G A56U]	0.08
UAACAGGGGGCCACAGCAGGAGCGCUCACGUCGCAGCCCCUGUCAGGUUCUGGUGAAUCUGCGAAUUCUGCUGUAUAUCUC [A20G U25C A47G]	0.33
UAACAGGGGGCCACAGCAGGAGCGCUCACGUCGCAGCCCCUGUCAGAUUCUGGUGGAUCUGCGAAUUCUGCUGUAUAUCAC [A20G U25C A56G U80A]	0.3
UAACAGGGGGCCACAGCAGGAGCGCUCACGUCGCAGCCCCUGUCAGAUUCUGGUGAGUCUGCGGAUUCUGCUGUAUAUCAC [A20G U25C A57G A64G U80A]	0.25
UAACAGGGGGCCACAGCAGGAGCGCUCACGUCGCAGCCCCUGUCAGAUUCUGGUGAAUCUGCGGAUUCUGCUGUAUAUCUC [A20G U25C A64G]	0.29
UAACAGGGGGCCACAGCAGGAGCGCUCACGUCGCAGCCCCUGUCAGAUUCUGGUGAAUCUGCGGAUUCUGCUGUAUUUCUC [A20G U25C A64G A77U]	0.22
UAACAGGGGGCCACAGCAGGAGCGCUCACGUCGCAGCCCCUGUCAGAUUCUGGUGAAUCUGCGAUUUCUGCAGUAUAUCUC [A20G U25C A65U U72A]	0.07
UAACAGGGGGCCACAGCAGGAGCGCUCACGUCGCAGCCCCUGUCAGAUUCUGGUGAAUCUGCGAAUUCUGCUGUAUUUCUC [A20G U25C A77U]	0.37
UAACAGGGGGCCACAGCAGGAGCGCUCAUGUCGCAGCCCCUGUCAGAUUCUGGUGAGUCUGCGAAUACUGCUGUAUAUCUA [A20G U25C C29U A57G U67A C81A]	0.05
UAACAGGGGGCCACAGCAGGAGCGCUCACGUAGCAGCCCCUGUCAGAUUCUGGAGAAUUAGCGGAUUCUGCUGUAUAUCUC [A20G U25C C32A U54A C59U U60A A64G]	0.06
UAACAGGGGGCCACAGCAGGAGCGCUCACGUCGCAGCCCUUGUCAGGUUCUGGUGAAUCUGCGAAUUCUGCUGUAUAUCUC [A20G U25C C40U A47G]	0.5
UAACAGGGGGCCACAGCAGGAGCGCUCACGUCGCAGCCCCUGUCAGAUUCUGGUGAAUGUGCGAAUUCUGCUGUAUAUCUC [A20G U25C C59G]	0.1
UAACAGGGGGCCACAGCAGGAGCGCUCACAUCGCAGCCCCUGUCAGAUUCUGGUGAAUCUGCGAAUUCUGCUGUAUAUCUC [A20G U25C G30A]	0.08
UAACAGGGGGCCACAGCAGGAGCGCUCACAUCGCAGCCCCUGUCGGAUUCUGGUGAAUCUGCGAAUUCUGCUGUAUAUCUC [A20G U25C G30A A45G]	0.08
UAACAGGGGGCCACAGCAGGAGCGCUCACAACGCAGCCCCUGUCAGAUUCUGGUGAAUCUGCGAAUUCUGCCGUAUAUCCC [A20G U25C G30A U31A U72C U80C]	0.23
UAACAGGGGGCCACAGCAGGAGCGCUCACGUCGCAGCCCCUGUCAGAUUCUGGUAAAUCUGCGAAUUCUGCUGUAUAUCUC [A20G U25C G55A]	0.11
UAACAGGGGGCCACAGCAGGAGCGCACCCGUCGCAGCCCCUGUCAGAUUCUGGUGAAUCUGCGAAUUCUGCUGUGUAUCUC [A20G U25C U26A A28C A75G]	0.08
